Source: PubChem BioAssay AID2451 (National Center for Advancing Translational Sciences (NCATS), 2010)
In all, about 290,000 compounds went through this assay and about 2,100 (0.72%) were called active. Inconclusive results, whose numbers are uncertain, are shown with a selection of clear calls. Calls follow the shape of the dose curve; as a rule, active = well fitted inhibition curve with a large enough effect; inconclusive = small, poorly fitted or top-dose-only effect, or effect the other way; inactive = flat fitted curve, though single readings scatter. A potency beside an inconclusive call is a rough fit, not a confirmed value.

Target: Fructose-bisphosphate aldolase (Giardia intestinalis (strain ATCC 50803 / WB clone C6)) (UniProt A8B2U2)
Chain of UniProt A8B2U2 (A8B2U2 whole entry, looked up): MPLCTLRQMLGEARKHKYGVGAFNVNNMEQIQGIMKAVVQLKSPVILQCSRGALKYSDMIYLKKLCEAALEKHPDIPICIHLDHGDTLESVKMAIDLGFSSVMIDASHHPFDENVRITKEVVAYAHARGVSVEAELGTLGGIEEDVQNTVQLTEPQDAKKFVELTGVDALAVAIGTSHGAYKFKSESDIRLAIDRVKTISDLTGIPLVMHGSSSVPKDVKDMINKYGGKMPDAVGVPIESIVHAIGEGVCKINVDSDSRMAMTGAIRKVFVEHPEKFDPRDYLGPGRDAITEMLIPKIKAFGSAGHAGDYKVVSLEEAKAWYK
Assay: qHTS Assay for Inhibitors of Fructose-1,6-bisphosphate Aldolase from Giardia Lamblia; also: nearly all actives have a fitted effect of over 55% in size
Settings: purified Giardia FBPA; series mostly up to 59.6 µM
How it was run: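 40 nM FBPA preincubated 10 min at RT with compound (up to 57.5 uM final), then substrate plus GAPDH/TPI/NAD/arsenate coupling and diaphorase/resazurin added. Fluorescence read after 20 min at RT, 525/598 nm.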
Potency is read from the fitted curve at half-maximal effect; tags tell the direction and shape of the fitted curve.

| Compound | Potency |
| --- | --- |
| NNc1nc2ccc(F)cc2s1 | inconclusive: 17.7 µM [inhibitor, partial curve] |
| N=C1C(c2nc3ccccc3c(=O)[nH]2)=C(O)CN1CCO | inactive |
| COc1cc2c(cc1OC)[C@@H]1Cc3ccc(OC)c(OC)c3CN1CC2 | inconclusive: 28.2 µM [inhibitor, partial curve] |
| CC(C)(C)CC(C)(C)NCC(=O)Nc1c2c(nc3ccccc13)CCC2 | active: 4.46 µM |
| Cc1cc(C)nc(NC(=S)NC(=O)c2ccccc2)n1 | inconclusive: 20 µM [inhibitor, partial curve] |
| CC(C)(C)c1csc(NC(=O)c2ccc3nccnc3c2)n1 | inactive |
| COc1cccc(CN2CC=C(c3ccc(F)cc3)CC2)c1 | inconclusive: 39.8 µM [inhibitor, single point] |
| O=C(O)COc1ccccc1C(Nc1cccnc1)c1cc(Cl)c2cccnc2c1O (configuration not stated) | active: 17.7 µM |
| O=[N+]([O-])c1c(NCCCO)cc(Sc2ccc(Cl)cc2)c2nonc12 | inconclusive: 0.561 µM [inhibitor, full curve] |
| CC(NC(=O)c1ccccc1F)c1nnc(SCC(=O)Nc2nccs2)n1C (configuration not stated) | inactive |
| O=C(O)c1cc(O)c2c(c1)C(=O)c1cc(O)cc(O)c1C2=O | inconclusive: 17.7 µM [inhibitor, partial curve] |
| O=C(O)C1OC(Oc2cc3oc(-c4ccccc4)cc(=O)c3c(O)c2O)C(O)C(O)C1O (configuration not stated) | inconclusive: 15.8 µM [inhibitor, partial curve] |
| NC(=S)N/N=C/c1ccc(OC(=O)c2cccnc2)cc1 | inconclusive: 35.5 µM [inhibitor, single point] |
| CN1/C(=C\C(=O)COC(=O)c2ccc([N+](=O)[O-])o2)C(C)(C)c2ccccc21 | inconclusive: 15.8 µM [inhibitor, partial curve] |
| Cc1ccsc1/C=N/n1c(=S)[nH]nc(C)c1=O | inconclusive: 19.9 µM [inhibitor, partial curve] |
| CCSc1nc2c(cnn2-c2ccccc2)c(=O)n1N | inactive |
| CCC(NC(=O)NNC(N)=S)(C(F)(F)F)C(F)(F)F | active: 19.9 µM |
| CCOC(=O)c1c(S(=O)(=O)Nc2ccc(F)cc2C)c(C)n(C)c1C | inactive |
| C=CCc1ccc(OCCOCCOc2cccc3ccc(C)nc23)c(OC)c1 | inconclusive: 19.9 µM [inhibitor, partial curve] |
| COc1cccc(N/C(SCc2cccc([N+](=O)[O-])c2)=C(/C#N)C(N)=O)c1 | inconclusive: 25.1 µM [inhibitor, partial curve] |
| C=CCc1cc(C)ccc1OCCOCCn1ccnc1 | inconclusive: 17.7 µM [inhibitor, partial curve] |
| CCOc1ccc(NC(=S)N2CCN(S(C)(=O)=O)CC2)cc1 | inactive |
| Oc1ccccc1-c1nc(NC2CCCC2)c2ccccc2n1 | inconclusive: 35.5 µM [activator, single point] |
| Cc1cccn2c(=O)c3cc(C#N)c(=NC(=O)c4cccs4)n(CCCOC(C)C)c3nc12 | inactive |

| Compound | Potency |
| --- | --- |
| Cc1cc(NC(=O)CN2CCN(C)CC2)no1 | inconclusive: 19.9 µM [inhibitor, partial curve] |
| CCOc1c(OC(C)=O)ccc(/C=C2\N=C(SCC)SC2=O)c1[N+](=O)[O-] | inconclusive: 17.7 µM [inhibitor, single point] |
| Cc1ccc(-c2n[nH]c(=S)n2/N=C/c2c(C)[nH]n(-c3ccccc3)c2=O)cc1 | active: 9.98 µM |
| Cc1ccc(NC(=O)CNCc2ccc(Cl)cc2Cl)cc1S(=O)(=O)N(C)C | inconclusive: 25.1 µM [inhibitor, single point] |
| CCCN1C(=O)/C(=C/c2ccc(C)o2)NC1=S | inconclusive: 17.7 µM [inhibitor, partial curve] |
| Cc1cc2c(c(=O)n1Cc1ccccc1)C1O[C@](c3ccsc3)(Cc3ccccc31)O2 | inconclusive: 3.55 µM [inhibitor, single point] |
| COc1cc(NC(=O)c2ccc3c(SCC(=O)O)c4c(nc3c2)CCCC4)cc(OC)c1OC | inconclusive: 35.4 µM [inhibitor, single point] |
| CC(C)(C)C1=CC=C(C(C)(C)C)C(=O)C1=O | active: 7.92 µM |
| COC(=O)c1cnc(NNS(=O)(=O)c2ccc(C(F)(F)F)cc2)nc1C(F)(F)F | inconclusive: 15.8 µM [inhibitor, partial curve] |
| COc1ccc(CCC(C)N2CCOCC2)cc1 (configuration not stated) | inconclusive: 35.5 µM [inhibitor, partial curve] |
| O=C1C(Nc2cccc(O)c2)=C(N2CCCCC2)C(=O)c2ccccc21 | inconclusive: 1.12 µM [inhibitor, full curve] |
| COc1cc(C2CC(=O)N3CN(c4ccccc4C)CSC3=C2C#N)cc(OC)c1OC (configuration not stated) | active: 4.46 µM |
| CN(C)CCCNc1c2ccccc2nc2ccccc12 | inactive |
| CC(C(=O)NC1CCCCC1)N1CCN(C)CC1 (configuration not stated) | inconclusive: 14.1 µM [inhibitor, partial curve] |
| CC(C)Cc1nc(S(=O)(=O)c2ccc(Cl)cc2)c(N2CCOCC2)o1 | inactive |
| Cc1cccc(C(=O)c2cn[nH]c2-c2ccc(C)cc2O)c1 | inactive |
| O=C(c1ccco1)n1nc(NCc2ccccc2)nc1NCc1ccccc1 | inactive |
| CN1CCC/C1=C/C=C1\SC(=S)NC1=O | inconclusive: 17.7 µM [inhibitor, partial curve] |
| CC(C)(C)c1ccc(NC(=O)N2CCCN(c3c(Cl)cncc3Cl)CC2)cc1 | inconclusive: 14.1 µM [inhibitor, partial curve] |
| COc1cc(C(=O)O/N=C2/C=C(C)C(=O)C=C2C)cc(OC)c1OC | active: 6.29 µM |
| COc1ccc(OC)c2[nH]c(=O)c(CCNS(=O)(=O)c3ccc(C)cc3)cc12 | inconclusive: 15.8 µM [inhibitor, single point] |
| N[C@@H](Cc1c[nH]c2ccccc12)c1nnc(SCc2ccccc2F)o1 | inconclusive: 31.5 µM [inhibitor, single point] |
| S=C(Nc1ccc2nc(-c3ccccn3)c(-c3ccccn3)nc2c1)N1CCCCCC1 | inconclusive: 1.99 µM [inhibitor, full curve] |
| O=[N+]([O-])c1c(NCCCO)cc(Sc2nc3ccccc3s2)c2nonc12 | inconclusive: 31.5 µM [inhibitor, partial curve, poor fit] |

| Compound | Potency |
| --- | --- |
| COc1ccc2c(c1)-c1nc(N)sc1CC2 | inconclusive: 15.8 µM [inhibitor, partial curve] |
| NC(=O)C1=C[C@H](c2csc3ccccc23)C[C@H](OCCCCO)O1 | inconclusive: 17.7 µM [inhibitor, partial curve] |
| Cc1ccc(OCC(=O)Nc2ccccc2Sc2ccc(Cl)cc2)c([N+](=O)[O-])n1 | inconclusive: 17.7 µM [inhibitor, single point] |
| Cc1oc2c(cc(NS(=O)(=O)c3cccs3)c3ccccc32)c1C(=O)OC(C)C | inconclusive: 2.23 µM [inhibitor, full curve] |
| Cc1c(Cc2ccccc2)c(=O)oc2c(O)c(O)ccc12 | inconclusive: 8.89 µM [inhibitor, partial curve] |
| COC(=O)C1=C(C)N(Cc2ccccc2)C(=S)N[C@H]1c1cccc(C(F)(F)F)c1 | inconclusive: 35.5 µM [activator, partial curve] |
| CCC1CCCCN1S(=O)(=O)c1ccc(C(=O)Nc2nnc(-c3ccccc3Cl)o2)cc1 (configuration not stated) | inconclusive: 11.2 µM [activator, single point] |
| O=C(OCCOCCN=C1NS(=O)(=O)c2ccccc21)c1ccccc1Br | inactive |
| Cc1ccc(Sc2cc(NCCCO)c([N+](=O)[O-])c3nonc23)cc1 | inconclusive: 1.26 µM [inhibitor, full curve] |
| O=C(Nc1ccccc1)c1cccc(S(=O)(=O)NCc2ccco2)c1 | inactive |
| Cc1ccc(-c2nnn(CC(=O)N(CCN3CCOCC3)C(C(=O)NC3CCCC3)c3ccncc3)n2)o1 (configuration not stated) | inconclusive: 7.92 µM [inhibitor, partial curve] |
| COc1ccc(C(=O)NCc2nnc(SCC(=O)NC3=NCCS3)n2C)cc1 | inconclusive: 35.5 µM [inhibitor, single point] |
| O=C(Cc1cccs1)Nc1ccc(F)c(F)c1 | inactive |
| Cc1cccc(NS(=O)(=O)c2ccc(C)c(C(=O)OCC(=O)Nc3cc(C)on3)c2)c1 | inactive |
| CN1CCN(/N=C/c2ccc(-c3ccccc3)cc2)CC1 | inactive |
| CN(C)CCCCOc1cccc(Br)c1 | inconclusive: 14.1 µM [inhibitor, partial curve] |
| CCN(CC)CCNC(=O)C1CCN(S(=O)(=O)N2CCCCC2)CC1 | inactive |
| COc1ccc(CN(CCC(c2ccccc2)c2ccco2)C(=O)c2ccco2)cc1 (configuration not stated) | inactive |
| CCCCOC(=O)c1ccc(NC(=S)NC(=O)c2c(Cl)cnn2C)cc1 | inconclusive: 17.7 µM [inhibitor, partial curve] |
| NCc1cc2c3c(c1)CCCN3CCC2 | inconclusive: 25.1 µM [inhibitor, partial curve] |
| CSc1nc(NCc2ccco2)c2c3c(sc2n1)CN(C)CC3 | inactive |
| Cc1nc(SCC(=O)NC(=O)NCc2ccco2)nc(C)c1C | inactive |
| C/C(=C\C=C/[C@@H](C)C(=O)O)[C@H]1CN[C@H](C(=O)O)[C@@H]1CC(=O)O | inconclusive: 15.8 µM [inhibitor, full curve] |
| CCn1c2ccccc2c2cc(CNCc3ccc(OC)cc3OC)ccc21 | inconclusive: 5.61 µM [inhibitor, single point] |
